Measurements from PubChem BioAssay AID1508624 (National Center for Advancing Translational Sciences (NCATS), 2021).
Screen size: about 48,000 compounds; about 120 (0.25%) were called active. Not shown: some 4% with an inconclusive outcome. The call rests on the fitted dose curve; in most records, active means well fitted activation curve with a large enough effect; inconclusive means small, poorly fitted or top-dose-only effect, or another doubt; inactive means no such curve, though single readings can be large or run the other way. This is one part of the list.

Assay: Primary qHTS for Identification of Small Molecule Activators of Huntingtin-Antisense Promoter Activity; further: nearly all actives have a fitted effect of over 55% in size
Conditions: HEK293 HTT-AS promoter firefly luciferase reporter, 24 h; series mostly up to 57.5 µM; activity change, positive = activation: at the top concentration
Procedure, shortened: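 Firefly luciferase signal from promoter-reporter HEK293 cells was scaled between vehicle (0%) and zero RLU (-100%). Compounds were tested at final concentrations of up to 57.5 uM over 24 h at 37 degrees C. PTC124 at 50 uM final served as control inhibitor.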

SMILES	activity change, positive = activation
CCCN1C(=O)C(Cc2nc3ccccc3c(=O)n2-c2cccc(C)c2)c2ccccc21 (stereo not given)	inactive: -10.4%
O=C(NCCOCCn1c(=O)oc2ccccc21)Nc1ccc(F)cc1	inactive: -5.45%
COc1ccc(OCC(=O)Nc2cccc(-c3nc4ccccc4s3)c2C)cc1	inactive: -36.2%
Cc1nc(N2CCCC2)ncc1C(=O)Nc1ccc(F)cc1F	inactive: 21.5%
COc1ccccc1OCC(=O)Nc1nc(-c2ccc(Br)cc2)ns1	inactive: -4.67%
CC(C)N(Cc1ccccc1)C(=O)CCS(=O)(=O)c1ccc2c(c1)oc(=O)n2C	inactive: -9.84% [at 11.5 µM, percent change from vehicle, -100% = no light]
Cc1ccc(NC(=O)C2CCN(S(=O)(=O)c3c(C)noc3/C=C/c3ccco3)CC2)cc1C	inactive: -24.1%
Cc1ccc(S(=O)(=O)c2cn(C)c3cc(N4CCCC(C)C4)c(F)cc3c2=O)c(C)c1 (stereo not given)	inactive: -27%
Cc1cc2c(cc1S(=O)(=O)N(CCN(C)C)Cc1ccco1)OCC(=O)N2	inactive: -5.73%
Cc1ccc(Cn2c(C)c(CNCCCc3ccccc3)c(C(=O)O)c2C)cc1	inactive: -15%
CC1CCN(S(=O)(=O)c2ccc3c(c2)CCC(=O)N3CC(=O)Nc2cccc(C#N)c2)CC1	inactive: -16.4%
CCCCNC(=O)CSc1nnc(C)c2c(C)n(-c3ccccc3)nc12	inactive: -31.1%
Cc1ccc(-c2noc(CNC(=O)c3ccccc3)n2)cc1	inactive: -15.9%
CCC1CN(C(=O)N2CCC(C(=O)NCc3ccccc3C)CC2)c2ccccc2O1 (stereo not given)	inactive: -26.5%
Cc1ccc(-c2cc3c(n2-c2ccc(C)cc2)CC(C)(C)CC3=O)cc1	inactive: -13.4%
Cc1ccc(C2=NN(CC(=O)NCCN(CC(C)C)CC(C)C)C(=O)CC2)cc1	inactive: -12%
CC(C)NC(=O)C1CCN(c2nc3ccccc3nc2C(F)(F)F)CC1	inactive: -7.39%
CCCCCCCCCCCC[N+](C)(C)Cc1ccccc1	inactive: 9.53%
O=C(NCc1ccccc1)c1ccc(CSc2nc3cccnc3n2Cc2ccccc2F)cc1	inactive: -26%
O=c1c(O)c(-c2ccc(O)cc2O)oc2cc(O)cc(O)c12	inactive: -6.69%
N#Cc1ccc(CSc2nc3c(c(=O)[nH]2)CCCC3)cc1	inactive: -6.24%
CC(C)Sc1ncc(Cl)c(C(=O)Nc2ccc(S(=O)(=O)N(C)c3ccccc3)cc2)n1	inactive: -6.25%
Fc1ccc2ncc3c(-c4ccccc4)n[nH]c3c2c1	inactive: -6.12%
COC(=O)CCn1cnc2onc(-c3cc(F)cc(F)c3)c2c1=O	inactive: -10%

SMILES	activity change, positive = activation
Cc1ccc(C)c(CS(=O)(=O)c2cn(CC(=O)N(C(C)C)C(C)C)c3ccccc23)c1	inactive: -20.5%
Cn1ncc2c(Nc3cccc(F)c3)ncnc21	inactive: -3.45%
O=C(Nc1c(C(=O)Nc2ccccc2F)oc2ccccc12)c1cc2ccccc2o1	inactive: 4.25%
COc1ccc(C2CNC(=O)C2)cc1OC1CCCC1 (stereo not given)	inactive: -12.8%
COc1cc(C(CC(=O)NCCC(C)C)N2Cc3ccccc3C2=O)cc(OC)c1OC (stereo not given)	inactive: -16.9%
COc1cc(NC(=O)CN2CCN(CC(=O)Nc3ccc(F)cc3)CC2)cc(OC)c1	inactive: -16.1%
Cc1c(Cl)cccc1NC(=O)Cn1cnc2nc3c(cc2c1=O)CCCC3	inactive: -10.6%
Cc1ccc(-n2ncc3c(N4CCC(Cc5ccccc5)CC4)ncnc32)cc1	inactive: -50.8%
O=C(c1ccc2c(c1)N(Cc1ccccc1F)C(=O)c1ccccc1S2=O)N1CCOCC1 (stereo not given)	inactive: -23.2%
CC(C)(C)CC(=O)NC1CC(=O)N(c2ccc3c(c2)OCCO3)C1 (stereo not given)	inactive: -24%
Cc1ccc2c(c1)cc1c(=O)n(CC(=O)N3CCCCC3)nc(C)n12	inactive: -10.4%
Cc1cccc(N(C)C(=O)CSc2nc3ncccc3o2)c1	inactive: -7.69%
CCc1ccc(C(=O)c2cn(CC(=O)Nc3ccc(C)c(C)c3)c3ccccc3c2=O)cc1	inactive: -39.7%
CCCCCN=C(N)NN=Cc1c[nH]c2ccc(OC)cc12	inactive: -27.5%
COc1ccc2c(c1)c1c(c(=O)n(-c3ccccc3)c(=O)n1CC(=O)Nc1ccc(C)c(C)c1)n2C	inactive: -19.9%
CN(Cc1ccccc1)S(=O)(=O)c1nnc(NC(=O)c2ccccc2)s1	inactive: -12.8%
CCOc1ccc2c(c1)NC(c1cccs1)=NC(c1ccc(F)cc1)=N2	inactive: 24.7%
CCN(c1ccccc1)c1nnc(NC(=O)Nc2ccc(Br)cc2F)s1	inactive: -0.621%
O=C(Nc1ccc(Br)cc1F)N1CCC2(CC1)Oc1ccccc1C(=O)N2Cc1ccccc1F	inactive: -5.63%
COc1ccc(C2C(C(=O)Nc3ccc(C)cc3C)=C(C)Nc3nc4ccccc4n32)c(OC)c1 (stereo not given)	inactive: -29.9%
COc1ccc2occ(CC(=O)Nc3ccc(S(=O)(=O)Nc4nc(C)cc(C)n4)cc3)c2c1	inactive: -10.2%
O=C1CSC2(C(=O)N(Cc3ccccc3)c3ccccc32)N1c1ccc(Cl)cc1 (stereo not given)	inactive: -5.69%
CCC(C)NC(=O)C1=CC(c2ccc3c(c2)OCO3)=NS(=O)(=O)N1C (stereo not given)	inactive: -13.7%
COC(=O)c1cc(NC(=O)Cn2nc(-c3ccc(C)c(C)c3)ccc2=O)cc(C(=O)OC)c1	inactive: -5.7%

SMILES	activity change, positive = activation
CC(C)(C)c1ccc(C(=O)N2CCCCC2CCN2CCCCC2)cc1 (stereo not given)	inactive: -13.3%
COc1cccc2c1Oc1ncccc1N(C(=O)CCC(=O)NCc1ccccc1Cl)C2	inactive: -12.4%
O=C(CN1C(=O)COc2ccc(S(=O)(=O)Nc3ccccc3)cc21)Nc1cccc(Cl)c1	inactive: -25.6%
Cc1cc(C)cc(NS(=O)(=O)c2ccc3[nH]cc(C(=O)NCc4ccccc4Cl)c(=O)c3c2)c1	inactive: -49.2%
CC(=O)Nc1nc(C)c(-c2ccc(Cl)c(S(=O)(=O)NCCO)c2)s1	inactive: -34.6%
COc1cc(NC(=O)Cn2c(=O)n(Cc3ccco3)c(=O)c3oc4ccccc4c32)cc(OC)c1	inactive: -16%
Cc1ccc(-c2nc(Cn3c(=O)cc(-c4ccccc4)c4c(C)nn(C)c43)c(C)o2)cc1	inactive: -1.89%
Cc1ccc(OCCn2nnc3sc4c(c3c2=O)CCC(C)C4)cc1 (stereo not given)	inactive: 2.7%
CCOc1ccc(C(=O)N2CCC(c3noc(-c4ccc(S(=O)(=O)N5CCCC5)cc4)n3)CC2)cc1	inactive: -35.7%
CN(C1CCCCC1)S(=O)(=O)c1ccc2c(c1)c(=O)c(C(=O)N1CCN(c3ccccc3F)CC1)cn2C	inactive: 2.08%
CCc1c(-c2ccccc2)nc2ccccc2c1C(=O)NCc1ccc(C)cc1	inactive: -40.3%
CCOc1ccc(NC(=O)c2cc(=O)c3ccc(C)c(C)c3o2)cc1	inactive: 0.754% [at 11.5 µM, percent change from vehicle, -100% = no light]
Cn1cnc(S(=O)(=O)N2CCC(C(=O)N3CCN(c4ccccc4F)CC3)CC2)c1	inactive: 0.4%
CSc1cccc(NS(=O)(=O)c2cn(C)c(C)n2)c1	inactive: -8.78%
Cc1cc2c(cc1S(=O)(=O)CCC(=O)NCCc1ccccc1)OCC(=O)N2	inactive: -7.6%
CCC1CN(C(=O)Nc2ccc(C)c(F)c2)c2ccccc2S1 (stereo not given)	inactive: 2.51%
O=C1CN(C(=O)c2ccc(S(=O)(=O)N3CCCC3)cc2)C(c2ccccc2)c2cc(Br)ccc2N1 (stereo not given)	inactive: -20.8%
CCOc1ccc(-c2nnc(SCC(=O)NCc3ccccc3)o2)cc1	inactive: -40.1%
Cc1ccc(NC(=O)CN2CCSc3ccc(S(=O)(=O)N4CCCC4)cc32)cc1C	inactive: -34.4%
CC(C)(C)C(=O)NC1(C(F)(F)F)C(=O)Nc2c1c(=O)[nH]c(=O)n2-c1ccccc1 (stereo not given)	inactive: -7.03%
COc1cc(OC)c(NS(=O)(=O)c2cc(-c3cnc(C4CC4)o3)ccc2C)cc1Cl	inactive: -26.3%
Cc1nnc(N2CCC(C(=O)NCCc3ccccc3)CC2)c2nn(-c3ccc(Cl)cc3)c(C)c12	inactive: -21.9%
CCOc1ccc(-n2nc3cc(C)c(NC(=O)c4cc(OCC)c(OCC)c(OCC)c4)cc3n2)cc1	inactive: 9.14%
CCOc1ccc(-c2cc(-c3nc(-c4ccc(OC)c(OC)c4)no3)[nH]n2)cc1	inactive: -13.6%

SMILES	activity change, positive = activation
Cc1ccccc1CSc1ncc(CO)n1Cc1ccc(F)cc1	inactive: -7.95%
COc1ccc(Cc2nc3ccccc3n2Cc2ccccc2F)cc1	inactive: -27.8%
CC(=O)c1ccc(NC(=O)CC(c2cccs2)N2Cc3ccccc3C2=O)cc1 (stereo not given)	inactive: -0.394%
CCN(C(=O)Cn1cnc2sc(C)c(S(=O)(=O)N3CCN(c4ncccn4)CC3)c2c1=O)c1ccccc1F	inactive: -8.2%
COc1ccc(-c2cn3cccnc3n2)cc1NC(=O)c1cc(C)cc(C)c1	inactive: -25%
Cc1cc(Cl)ccc1OCC(=O)N(Cc1ccco1)Cc1ccco1	inactive: -13.1%
Cc1ccc(-n2ncc(C(=O)N3CCN(c4ccc(Cl)cc4)CC3)c2C2CCN(C(=O)OC(C)(C)C)CC2)c(C)c1	inactive: 3.36%
COc1ccc(-c2nnc(C3CCN(S(=O)(=O)c4ccc(C)c(C)c4)CC3)o2)cc1	inactive: -29.9%
CC(O)CNc1nc2c(c(=O)n(Cc3ccc(Cl)cc3)c(=O)n2C)n1C (stereo not given)	inactive: -12.7%
CCOC(=O)c1ccc(NC(=O)c2ccc(=O)n(Cc3cccc(C)c3)c2)cc1	inactive: -42.2%
CCOCCCN(Cc1ccco1)S(=O)(=O)c1cc2c(cc1C)NC(=O)CO2	inactive: -16.4%
COc1ccc(-n2ncc(C(=O)Nc3cccc(C(F)(F)F)c3)c2C2CCN(C(=O)OC(C)(C)C)CC2)cc1	inactive: -25.6%
COc1ccc(N2Cc3cccc(C(=O)Nc4ccc(F)cc4)c3C2=O)cc1	inactive: -17.9%
CCN1CCCC1CN (stereo not given)	inactive: -4.92%
O=C(Nc1c(C(=O)N2CCN(c3ccccc3)CC2)oc2ccccc12)c1ccco1	inactive: -11.4%
CC(C)C(=O)NCC(c1ccc2c(c1)OCO2)N1CCN(c2ccccc2)CC1 (stereo not given)	inactive: -19.6%
Cc1c(C(=O)NCCc2ccc(Cl)cc2)sc2nc3n(c(=O)c12)CCCC3	inactive: -1.33%
Cc1ccccc1CN1c2ccccc2-c2nc(SCC(=O)NCc3ccccc3)ncc2S1(=O)=O	inactive: -8.51%
CCN(CC)c1ccc(NC(=O)c2sc3nc4c(cc3c2N)CN(C)CC4)cc1	inactive: -11.2%
CCn1c(C(=O)N2CCCC(C(=O)N3CCN(c4cc(C)ccc4C)CC3)C2)cc2sccc21 (stereo not given)	inactive: -42.4%
COc1cc(OC)c(OC)cc1CNc1sc2c(c1C(=O)Nc1ccccc1OC)CCC2	inactive: -14.9%
O=C(Nc1ccc2nc(SCC(=O)N3CCc4ccccc43)sc2c1)c1cccc(Cl)c1	inactive: -8.04%
CN(C(=O)CCS(=O)(=O)c1cc2c(cc1Cl)NC(=O)CO2)C1CCCCC1	inactive: -10%
